Source: publication PMC4336329 (PLoS ONE, 2015)
The campaign covered roughly 310,000 compounds. About 14,000 (4.5%) showed an effect of 50% or more. The effect is printed as a negative number. The list shows a part of the results.

These compounds were tested against human ether-à-go-go-related gene (hERG) potassium channel (human, UniProt Q12809) (assay: primary screen, population patch clamp on CHO cells stably expressing hERG).
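Further: peak tail current of the secondary pulse compared with the same well before compound.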

Sequence of human ether-à-go-go-related gene (hERG) potassium channel (Q12809 whole entry, looked up): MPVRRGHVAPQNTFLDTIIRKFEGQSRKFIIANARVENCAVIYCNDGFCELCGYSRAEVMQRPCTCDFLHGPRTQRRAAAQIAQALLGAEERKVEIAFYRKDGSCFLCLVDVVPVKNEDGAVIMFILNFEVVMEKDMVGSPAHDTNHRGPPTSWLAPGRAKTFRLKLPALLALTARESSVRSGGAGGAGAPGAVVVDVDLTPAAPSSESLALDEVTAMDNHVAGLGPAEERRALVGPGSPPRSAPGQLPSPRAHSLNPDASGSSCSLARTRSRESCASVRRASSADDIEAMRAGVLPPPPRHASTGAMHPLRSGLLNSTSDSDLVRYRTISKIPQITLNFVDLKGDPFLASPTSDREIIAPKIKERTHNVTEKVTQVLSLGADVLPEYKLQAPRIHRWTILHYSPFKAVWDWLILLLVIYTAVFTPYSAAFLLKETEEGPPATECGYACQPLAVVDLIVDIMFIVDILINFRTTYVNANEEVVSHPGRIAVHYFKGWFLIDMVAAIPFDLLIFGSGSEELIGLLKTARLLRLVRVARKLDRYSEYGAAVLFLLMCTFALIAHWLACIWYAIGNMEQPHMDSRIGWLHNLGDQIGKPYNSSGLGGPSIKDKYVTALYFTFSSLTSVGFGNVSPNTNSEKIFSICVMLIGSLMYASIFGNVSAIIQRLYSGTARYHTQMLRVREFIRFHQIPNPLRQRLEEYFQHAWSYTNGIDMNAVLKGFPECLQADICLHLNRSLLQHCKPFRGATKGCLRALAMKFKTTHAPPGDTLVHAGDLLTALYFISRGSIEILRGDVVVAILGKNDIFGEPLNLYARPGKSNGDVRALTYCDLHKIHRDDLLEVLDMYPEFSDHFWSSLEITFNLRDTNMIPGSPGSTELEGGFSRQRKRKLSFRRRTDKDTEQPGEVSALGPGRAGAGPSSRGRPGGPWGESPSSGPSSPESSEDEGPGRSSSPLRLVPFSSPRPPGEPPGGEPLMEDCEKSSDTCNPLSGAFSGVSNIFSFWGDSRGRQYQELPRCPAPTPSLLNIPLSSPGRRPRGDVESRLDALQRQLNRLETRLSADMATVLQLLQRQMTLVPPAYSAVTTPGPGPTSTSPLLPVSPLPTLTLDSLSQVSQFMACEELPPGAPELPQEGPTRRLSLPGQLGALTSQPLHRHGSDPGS

Row | Compound | hERG current change (%, negative = inhibition) at 10uM [%]
1 | COc1ccc2ccccc2c1-c1sc(Nc2ccccc2)n[n+]1-c1ccc(F)cc1.[Cl-] | -57.4
2 | Cc1c(C(=O)N2CCCCCC2)nnn1-c1nonc1N | 1.22
3 | COc1ccc(C(=O)Nc2nc(-c3ccc([N+](=O)[O-])cc3)c(-c3ccc(OC)cc3)s2)cc1 | 18.9
4 | COc1cccc2cc(-c3ccccc3)c(=O)oc12 | -4.86
5 | Oc1ccccc1-c1nc2cnccn2c1Nc1ccc2c(c1)OCCO2 | -5.98
6 | Cc1ccc(NC(=O)Nc2nnc(Cc3ccc([N+](=O)[O-])cc3)s2)cc1C | 28.5
7 | O=C(CC1NC(=O)NC1=O)Nc1cccc2ccccc12 (stereo not drawn) | -10.8
8 | NS(=O)(=O)c1ccc(CCNC(=O)c2ccccc2[N+](=O)[O-])cc1 | 18.6
9 | CCc1cc2c(=O)c(-c3nc4ccccc4n3C)c(C)oc2c(CN2CCOCC2)c1O | 0.344
10 | Cc1cc(C(=O)N2CCN(c3ccccc3)CC2)c(C)o1 | -1.46
11 | O=C(COc1ccccc1)Nc1ccccc1N1CCN(c2ccc(F)cc2)CC1 | 0.708
12 | CC(C)(C)OC(=O)C(C)(C)O/N=C(\C(=O)O)c1csc(N)n1 | 31.5
13 | CN(c1ccc(OCC(=O)N2CCN(C/C=C/c3ccccc3)CC2)cc1)S(=O)(=O)c1cccs1.Cl | -30.6
14 | CCOC(=O)CSc1nnc(CNC(=O)Cc2ccccc2)n1C | 6.75
15 | CC(C)CC(=O)NC(=S)Nc1cccc(NC(=O)c2ccccc2)c1 | 12
16 | CN(C)C=Nc1ncc2c3ccccc3n(Cc3ccccc3)c2c1C#N | 8.62
17 | CC1(C)Cc2c(sc3ncn4nc(-c5ccco5)nc4c23)CO1 | 2.34
18 | CCNC(=O)NC1(C(=O)Nc2ccc3c(c2)OCCO3)CCCCC1 | 4.95
19 | COc1cc(CNc2ccc3[nH]c(=O)[nH]c3c2)ccc1OCc1ccc(Cl)cc1 | 26.7
20 | COc1cccc(NC(=O)c2cccc(Cl)c2)c1 | -19.9
21 | COc1ccc(CNC(=O)CN2C(=O)CSc3ccc(S(=O)(=O)N4CCCCC4)cc32)cc1 | -41.5

Row | Compound | hERG current change (%, negative = inhibition) at 10uM [%]
22 | COCCn1c(=NC(=O)/C=C/c2cccs2)sc2cc(NC(C)=O)ccc21 | -0.155
23 | COC(=O)/C=C1\SC(=NC(=O)c2ccc(C)cc2)NC1=O | 27
24 | CC1CC(C)CN(S(=O)(=O)c2ccc3c(c2)C(C)(C)C(=O)N3C)C1 (stereo not drawn) | -0.263
25 | O=C(CCc1ccccc1)N1N=C(c2ccncc2)CC1(O)C(F)(F)F (stereo not drawn) | 4.06
26 | CCOC(=O)c1c(C)oc(NC(=O)COc2ccc(Cl)cc2C)c1C#N | 3.53
27 | CCc1ccccc1N/N=C(/C)c1c(O)cc(C)oc1=O | -1.91
28 | Cc1nc(N2CCOCC2)c2c(C)c(C(=O)Nc3ccccc3C(F)(F)F)sc2n1 | 9.72
29 | CCOC(=O)Cc1csc(NC(=O)c2cccs2)n1 | -13.8
30 | N/C(=N/OS(=O)(=O)c1ccc([N+](=O)[O-])cc1)c1ccncc1 | 3.67
31 | Cc1ccc(SCc2ccc(C(=O)Nc3cccnc3)cc2)cc1 | 13.2
32 | COc1ccc(NC(=O)COC(=O)/C=C/c2ccccc2[N+](=O)[O-])cc1OC | -3.21
33 | Cc1ccc2cccc(NC(=S)NC(=O)c3c(Br)cnn3C)c2n1 | 6.09
34 | CCOC(=O)Cn1nc(C)cc1NC(=O)c1cc(OC)c(OC)c(OC)c1 | 6
35 | Cc1cccc(NC(=O)C23CCC(C)(C(=O)O2)C3(C)C)c1 (stereo not drawn) | 13
36 | COc1cccc(NC(=O)Cn2c(=O)n(-c3ccccc3)c(=O)c3oc4ccccc4c32)c1 | 2.55
37 | O=C(O)CCC(NS(=O)(=O)c1ccc(N2CCCC2=O)cc1)C(=O)O (stereo not drawn) | -7.11
38 | O=C(CNC(=O)c1ccccc1O)N/N=C/c1cc(Br)ccc1OC(=O)/C=C/c1ccco1 | 14.7
39 | C[C@@]12C(=O)N(Cc3ccc(-c4ccccc4)cc3)CC(=O)N1[C@H](/C=C/c1ccccc1)[C@@H]1C(=O)N(c3ccccc3)C(=O)[C@@H]12 | -10.9
40 | NS(=O)(=O)c1ccc(S(=O)(=O)N(CCc2ccccc2)Cc2ccccn2)cc1 | -14.2
41 | COc1ccc(NC(=O)CSCC(=O)N(C)Cc2ccc(Cl)c(Cl)c2)cc1 | -28.9
42 | Nc1cc(=O)[nH]c(SCc2csc(-c3ccccc3)n2)n1 | -3.63

Row | Compound | hERG current change (%, negative = inhibition) at 10uM [%]
43 | CC(C)(C)c1ccc(OCc2ccc(C(=O)N/N=C3\CC4CC=CC34)cc2)cc1 (stereo not drawn) | -0.565
44 | O=C(Oc1coc(CSc2nnc(NC(=O)c3cccs3)s2)cc1=O)c1ccccc1 | 7.37
45 | O=C(CN1c2ccccc2S(=O)(=O)c2ccccc21)NCc1ccc(F)cc1 | 3.58
46 | Cc1nnc2c3ccccc3c(-c3cccs3)nn12 | -5.86
47 | CC(Sc1nnnn1C)C(=O)Nc1ccccc1-c1ccccc1 (stereo not drawn) | 15.3
48 | Cc1cccc(-c2nnc(SC(C)C(=O)N3CCOCC3)o2)c1 (stereo not drawn) | 7.83
49 | O=C(NC1=NCCS1)c1cc2ccccc2o1 | -23.8
50 | CN1C(C)(C)c2ccccc2OS1(=O)=O | 4.02
51 | Cc1ccc(N/N=C(\C#N)C(=O)c2ccsc2)cc1 | 2.77
52 | CC(=O)Nc1ccc(C(=O)COC(=O)CCN2C(=O)C3CC=CCC3C2=O)cc1 (stereo not drawn) | 18.4
53 | CC(=O)N(c1ccc(C(C)C)cc1)C1C=CS(=O)(=O)C1 (stereo not drawn) | 3.93
54 | COc1cc(S(=O)(=O)N2CCOCC2)c(OC)c(S(=O)(=O)N2CCOCC2)c1 | 7.57
55 | Cc1nc2nc(SCc3nc4ccccc4[nH]3)[nH]c2cc1Br | 14.1
56 | COC(=O)C1=C(c2ccc(C(C)=O)cc2)C[C@@H]2CC[C@H]1N2C(=O)NC(C)C | 15
57 | COc1ccc(C)cc1NC(=O)CN1CCN(S(=O)(=O)c2ccc(Br)cc2)CC1 | -30.5
58 | CC1CC(C)CN(c2ncnc3c2cnn3Cc2ccc(Cl)cc2)C1 (stereo not drawn) | -3.26
59 | Cc1cc(S(=O)(=O)N(Cc2ccccn2)Cc2ccco2)ccc1-n1cnnn1 | -20.5
60 | CCCC(=O)Nc1ccc(C(=O)Nc2nc(CC(=O)OCC)cs2)cc1 | -13.2
61 | O=C(c1cc[n+]([O-])cc1)N1CCCC(N2CCN(c3cccc(C(F)(F)F)c3)CC2)C1 (stereo not drawn) | -6.27
62 | Cc1ccccc1NC(=O)c1[nH]cnc1C(=O)NN | 9.21
63 | C=CCC(O)(CC=C)CNC(=O)c1ccc(OC)c(OC2CCN(C(C)=O)CC2)c1 | 14.9

Row | Compound | hERG current change (%, negative = inhibition) at 10uM [%]
64 | O=C(N/C(=C\c1cccc([N+](=O)[O-])c1)C(=O)N1CCOCC1)c1ccco1 | 14.9
65 | Cc1c(C)n(C)c2ccc(C(=O)N3CCN(c4ccccc4)CC3)cc12 | -5.05
66 | Cc1ccc(S(=O)(=O)N(CC(=O)NCC2CCCO2)Cc2ccc(F)cc2)cc1 (stereo not drawn) | -10.6
67 | C[C@@H](C(=O)N[C@@H](Cc1ccccc1)C(=O)O)n1nnc2ccccc2c1=O | 5.17
68 | CC(=O)N1CCN(S(=O)(=O)c2cccc(C(=O)OCN3C(=O)c4ccccc4C3=O)c2)CC1 | -1.95
69 | COc1ccc([C@H](NC(=O)OC(C)(C)C)C(=O)OC(C)(C)C)cc1 | 4.04
70 | CCOc1ccc(-n2nnc3c(=O)n(CC(=O)Nc4cc(C)on4)cnc32)cc1 | 13.3
71 | COc1ccc(N(CC(=O)NCCC2=CCCCC2)S(=O)(=O)c2ccccc2)cc1 | 2.57
72 | COc1ccccc1C(=O)NC(=O)CSc1nc2nc(C)cc(C)n2n1 | 0.704
73 | CC(=O)c1cccc(OCC(=O)Nc2cc(Cl)ccc2-n2cncn2)c1 | -33.5
74 | CCc1ccc(C(=O)NNC(=O)c2ccc(OCC(=O)N3CCOCC3)c(OC)c2)cc1 | 10.6
75 | CCn1ccnc1CN(C)Cc1cn(-c2ccc(C)cc2)nc1-c1cccc(C)c1 | -28.1
76 | COc1cccc(Oc2coc3cc(OC(=O)N4CCOCC4)ccc3c2=O)c1 | -4.27
77 | CCOC(=O)c1ccc(NC(=O)CSc2nnc(Cc3cccs3)n2C)cc1 | 3.78
78 | Cc1cc(Br)ccc1NC(=O)CN1C(=O)CCC1=O | 13.1
79 | COc1ccc(CNC(=O)CCCc2ccccc2)cc1 | -14
80 | COc1ccc(Cl)c(OC)c1C(=O)NC(=O)Nc1nc(C)nc(C)n1 | 6.8
81 | O=C(Nc1ccc2c(c1)OCCO2)C1CCN(c2nnnn2-c2ccccc2)CC1 | 0.307
82 | CCc1nc2ccc(C(=O)O)cc2nc1CC | 6.59
83 | Nc1c(Cl)cc(-c2cn(CCC(=O)O)c(-c3ccc(Cl)nc3)n2)cc1Cl | 20.4
84 | O=C(NCC(=O)N(c1cccc(F)c1)C(C(=O)NC1CCCC1)c1cccnc1)c1ccco1 (stereo not drawn) | -6.84
